Laboratory results as given in PubChem BioAssay AID463173 (ICCB-Longwood Screening Facility, Harvard Medical School, 2010).
About 1,700 (3.3%) of roughly 52,000 compounds were called active. Cut-off read from the data, not from the text of the source: active = survival mostly below about 52% (no sharp cut-off); inactive = mostly above about 56%. The list shows a part of the results.

tested on: Wild type; experiment: growth inhibition of S. aureus wild type versus tarO mutant, primary screen, teichoic acid synthesis inhibitors, RN4220, OD600 (AID 463173); details: S. aureus RN4220 wild type/DeltatarO growth, OD600, 18 h, hits give low values, screened at 18.75 µg/mL (by protocol)

Structure (SMILES)	survival
COc1ccc(C(=O)N(CC(=O)NC2CCCC2)Cc2ccc3c(c2)OCO3)cc1OC	inactive: 105%
O=S1(=O)N=C(NNS(=O)(=O)c2ccccc2)c2ccccc21	inactive: 105%
COc1ccc(-c2nsc(NC(=O)COc3ccc(C)c(C)c3)n2)cc1	inactive: 98%
CCc1ccccc1NC(=O)C1(S(=O)(=O)c2ccc(Cl)cc2)CC1	inactive: 90%
Cc1ccc(C)c(N2CCN(C(=O)c3cc4ccc5cccnc5c4[nH]3)CC2)c1	inactive: 87%
CCOC(=O)c1c(C)oc2ncnc(Nc3ccc(F)cc3Cl)c12	inactive: 126%
Cc1cc(C)cc(NC(=O)CN2C(=O)CSc3ccc(S(=O)(=O)N(C)C)cc32)c1	inactive: 83%
COc1cc(C(=O)NCC(c2ccc(N(C)C)cc2)N2CCc3ccccc32)cc(OC)c1OC (stereo not given)	inactive: 95%
Cc1ccc(-c2nc3n(n2)C(c2ccccc2C)C=C(c2ccc(Cl)cc2)N3)cc1 (stereo not given)	inactive: 76%
COc1ccccc1CNC(=O)CS(=O)(=O)c1cccc2nsnc12	inactive: 86%
COc1ccc(-c2oc3ncn4nc(-c5cccc(C)c5)nc4c3c2-c2ccc(OC)cc2)cc1	inactive: 68%
COc1cc(C(=O)Nc2nnc(S(=O)(=O)N(C)c3ccccc3)s2)cc(OC)c1OC	inactive: 62%
Cc1ccc(CN2C(=O)c3ccccc3Sc3ccc(C(=O)NC4CCCCC4)cc32)cc1	inactive: 73%
O=c1oc(-c2cccc3ncccc23)nn1Cc1ccccc1F	inactive: 107%
COc1ccc(OC)c(NC(=O)CCn2cnnn2)c1	inactive: 73%
COc1ccc(CCNC(=O)c2cc(-c3ccc(C)cc3)nc3n[nH]c(-c4ccccc4)c23)cc1OC	inactive: 153%
COc1ccc(CNC(=O)c2cc3c(=O)[nH]c4ccc(C)cc4c3s2)c(OC)c1	inactive: 60%
Cc1ccc2cc(C#N)c(NCc3ccccc3)nc2c1	inactive: 115%
Cc1ccc(C)c2[nH]c(=O)c(C(c3nnnn3Cc3ccccc3)N3CCN(C)CC3)cc12 (stereo not given)	inactive: 117%
Cc1ccn2c(Nc3ccc(F)cc3)c(-c3ccc(C)o3)nc2c1	inactive: 94%
O=C(CSc1ncc(CO)n1Cc1ccccc1)Nc1nc2ccccc2s1	inactive: 124%
O=C(NC1CC(=O)N(c2ccc(F)cc2)C1)c1cccs1 (stereo not given)	inactive: 88%
COc1cc(CN(C(=O)COc2ccc(Br)cc2)c2ccccn2)cc(OC)c1OC	inactive: 81%

Structure (SMILES)	survival
CC(=O)N(Cc1cc2cc(C)c(C)cc2n2nnnc12)CC1COCCO1 (stereo not given)	inactive: 111%
COc1ccc(CNC(=O)C2CCN(c3nc4ccccc4[nH]3)CC2)c(OC)c1	inactive: 130%
COc1cc2nc(SCc3ccc(Cl)cc3)n3nc(CCn4nc(C)cc4C)nc3c2cc1OC	inactive: 71%
COC(=O)c1cccc(NC(=O)C2CCN(S(=O)(=O)Cc3ccccc3)CC2)c1C	inactive: 100%
CCCCOc1ccc(OC(=O)c2sc3ncn(Cc4cccc(F)c4)c(=O)c3c2C)cc1	inactive: 59%
CC(=O)c1sc2c(c1C)c(=O)n(-c1ccc(Cl)cc1)c(=O)n2Cc1cc(=O)n2cc(Cl)ccc2n1	inactive: 78%
Cc1nn(C(=O)c2ccc(Cl)cc2)c(C)c1Sc1ccc(Cl)cc1	inactive: 40%
CCCSc1nc2sc3c(c2c(=O)n1-c1ccccc1)CCC(C)C3 (stereo not given)	active: 1%
Cc1cc(NC(=O)CSc2nc(-c3ccccc3F)nc3c2c(=O)n(C)c(=O)n3C)no1	inactive: 88%
O=C(O)CCN(C(=O)C1C2C=CC(C2)C1C(=O)O)c1ccccc1 (stereo not given)	inactive: 104%
Cc1cccc(CSc2ncccc2C(=O)O)c1	inactive: 60%
CCOc1ccccc1NC(=O)Cn1c(=O)n(C(C)C)c(=O)c2oc3ccccc3c21	inactive: 118%
CC1=NN(c2ccc(Cl)cc2)C(=O)C1	inactive: 83%
COc1ccc(-n2nc3c(N4CCCC(C(=O)NCCc5ccccc5C)C4)nnc(C)c3c2C)cc1 (stereo not given)	inactive: 84%
COCCn1c(C)cc(O)c(C(c2ccc(F)cc2)N2CCC(C)CC2)c1=O (stereo not given)	inactive: 68%
CCOC(=O)c1cc2occc2n1CC(=O)N1CCCCC1	inactive: 92%
COc1ccc(-n2c(=O)c3ccc(C(=O)NCc4ccc(C)cc4)cc3n(Cc3ccc(Cl)cc3)c2=O)cc1	inactive: 74%
Cc1ccc(N(CC(=O)Nc2ccc(C)c(Cl)c2)S(=O)(=O)c2cccs2)cc1	inactive: 87%
COc1ccc(/C=C(\NC(=O)c2ccccc2)C(=O)N2CCOCC2)cc1	inactive: 105%
COc1cccc(NC(=O)Cn2c(=O)n(-c3ccccc3)c(=O)c3c2c2cc(OC)ccc2n3C)c1	inactive: 117%
O=S(=O)(c1ccc(-c2cnc(C3CC3)o2)cc1)N1CCN(c2ccccc2)CC1	inactive: 65%
CC1=C(C(=O)OC2CCCC2)C(c2ccccc2C(F)(F)F)CC(=O)N1 (stereo not given)	inactive: 79%
Cc1ccc(OCC(=O)Nc2cccc(C(=O)OCc3cc(=O)n4c(C)csc4n3)c2)cc1	inactive: 69%

Structure (SMILES)	survival
CCc1cccc(NC(=O)c2ccc3c(c2)c(C)c(C)n3Cc2ccc(F)cc2)c1	inactive: 71%
CCOc1ccccc1NC(=O)c1c(NC(=O)Cc2ccc(OC)cc2)sc2c1CCC2	inactive: 77%
CC(=O)c1ccc(N2CCN(c3ncnc4c3cnn4-c3cc(Cl)ccc3C)CC2)cc1	inactive: 124%
Cc1ccc(CNC(=O)CN2N=C(c3ccccc3)CCC2=O)cc1	inactive: 69%
CN1CCN(Cn2c(O)c(N=NC(=O)c3ccc(Br)cc3)c3cc(Br)ccc32)CC1	inactive: 109%
Cc1ccccc1OCC(=O)OCc1cc(=O)n2nc(-c3cccs3)sc2n1	inactive: 72%
COc1ccccc1CNC(=O)c1nnn(CC(=O)Nc2c(C)cccc2C)c1N	inactive: 90%
Cn1c(C(=O)Nc2ccc(OC(F)(F)F)cc2)cc2c(=O)n3ccccc3nc21	inactive: 89%
Cc1cccc(NC(=O)CSc2nnc(CSc3nc(C)cc(C)n3)o2)c1	inactive: 108%
Cc1cc(NC(=O)C2CCCN(S(=O)(=O)c3cccc4nsnc34)C2)ccc1Br (stereo not given)	inactive: 82%
Cc1cccc(N2CCN(C(=O)Nc3ccccc3F)CC2=O)c1C	inactive: 95%
O=C(Nc1cc(Cl)cc(Cl)c1)c1ccc(F)c(S(=O)(=O)N2CCN(c3ccccc3F)CC2)c1	inactive: 77%
CCOc1ccc(NC(=O)N2CCC(N3CCCCC3)CC2)cc1	inactive: 105%
Cc1cccc(CSc2nnc3[nH]c(=O)cc(-c4ccccc4)n23)c1	inactive: 80%
COc1cc(-c2nc3ccc(Cl)cn3c2Nc2ccc3c(c2)OCCO3)ccc1O	inactive: 49%
O=C(c1ccc2c(c1)N(Cc1ccc(Cl)cc1)C(=O)c1ccccc1S2(=O)=O)N1CCN(c2ccccn2)CC1	inactive: 96%
Cc1ccc(NC(=O)COc2ccc3oc4c(c3c2)CCCC4)cc1C	inactive: 74%
N#Cc1ccc(-c2ccc(OCC3CNC(=O)O3)cc2)cc1 (stereo not given)	inactive: 121%
Cc1ccc(CN2COc3c(Cl)cc4c(-c5ccccc5)cc(=O)oc4c3C2)cc1	inactive: 87%
Cc1ccc(NC(=O)C(=O)NCC2(c3ccccc3)CCCC2)cc1C	inactive: 89%
CCc1cccc(NC(=O)c2c(C)oc3nc(C)nc(N4CCCC4)c23)c1	inactive: 101%
CC(=O)Nc1ccc(C(=O)N2CC(C)OC(C)C2)cc1 (stereo not given)	inactive: 133%
O=C(CN1C(=O)COc2ccc(S(=O)(=O)N3CCOCC3)cc21)N1CCN(c2ccccc2F)CC1	inactive: 100%

Structure (SMILES)	survival
Cc1nn(-c2ccccc2)c2[nH]c(=O)c(CNCc3cccnc3)cc12	inactive: 102%
COC(=O)C1CCN(c2csc3ccc(Cl)cc3c2=O)CC1	inactive: 80%
O=C(NCCCO)c1nn(-c2ccc(Cl)cc2)nc1CO	inactive: 85%
CSc1nc(C)cc(C)c1C(N)=O	inactive: 102%
CCCOc1ccc(CNC(=O)CN2C(=O)c3cccnc3Oc3ccc(C)cc32)cc1	inactive: 58%
COc1ccc(S(=O)(=O)N/N=C(/C2CCCCC2)C(F)(F)F)cc1	inactive: 111%
COc1cccc(NC(=O)Cn2c(=O)n(CCc3ccc(OC)c(OC)c3)c(=O)c3ccccc32)c1	inactive: 72%
CCc1ccc(OCc2cc(=O)n3cc(C)sc3n2)cc1	inactive: 75%
CCOc1ccc2oc(=O)cc(CN3CCN(c4ccccc4OC)CC3)c2c1	inactive: 80%
COc1cc(OC)c(OC)cc1CNCCCSc1nnnn1C	inactive: 86%
Cc1cc(C)cc(N(CC(=O)NCc2ccco2)S(C)(=O)=O)c1	inactive: 108%
CCc1ccc(NCc2cc3ccc(OC)cc3n(CC(=O)Nc3ccc(C)c(Cl)c3)c2=O)cc1	inactive: 75%
COc1ccc(C(=O)N(Cc2cc(OC)c(OC)c(OC)c2)C2CCS(=O)(=O)C2)cc1Cl (stereo not given)	inactive: 86%
Cc1ccc(CSc2nc(-c3ccccc3C)nc3c2Cc2c(CO)cnc(C)c2O3)cc1	inactive: 84%
CC(=O)OC1OCCOC1NC(=S)Nc1ccc(C)cc1 (stereo not given)	inactive: 109%
Cn1cc(S(=O)(=O)N2CCOCC2)cc1C(=O)Nc1cccc(C#N)c1	inactive: 72%
CC(C)Oc1ccc(CNC(=O)Cn2nc(N3CCN(c4ccccc4)CC3)ccc2=O)cc1	inactive: 82%
CCC(=O)N1CCc2cc(OC)c(OC)cc2C1COc1ccc2c(C)cc(=O)oc2c1 (stereo not given)	inactive: 120%
COc1ccc(C2c3c(n(C)c4ccccc34)C(=O)N2CC(=O)Nc2ccc(F)cc2)cc1 (stereo not given)	inactive: 81%
CC(C)c1ccc(CNc2n[nH]c(-c3ccco3)n2)cc1	inactive: 90%
COCCNC(=O)C1=CC(c2ccc3c(c2)OCO3)=NS(=O)(=O)N1C	inactive: 103%
